Values marked as one replicate rest on one cluster of the flow cell; about a third of the high ones do not repeat.
The sequences below were run on ATP (assay: switch fluorescence ratio, 500 uM ATP over buffer (Cy3 cluster intensity, sum of 5 cycles each) (fold (ratio)); higher = stronger signal-on switching upon ATP binding; sequences stand for … in TCGTCGGCAGCGTCAGATGTGTATAAGAGACAGTTTTTTTTTTTTTTTTTTTTTTTTT…TC). Details: aptamer strand: ATP DNA aptamer (quencher-CACCTGGGGGAGTATTGCGGAGGAAGG + anchor), 100 nM annealed; ATP concentration: 500 uM; one replicate.
In short: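 Imaging in selection buffer was followed by imaging after 15 min with 500 uM ATP at 22 °C, for Cy3-labelled switching-strand clusters annealed to 100 nM quencher-labelled ATP aptamer on a modified Illumina MiSeq flow-cell. Five of these buffer/ATP cycles ran, separated by NaOH stripping and re-annealing. The fluorescence ratio per cluster is summed target-cycle over summed buffer-cycle Cy3 intensity, averaged per switch-domain sequence; clusters outside 100-1000 RFU were removed.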
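Note: ATP exposure 15 min at 22 °C before imaging.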

Sequence | switch fluorescence ratio
ACTAATGCTG | 1.03
ACTACACCGG | 1.9
ACTACACGAA | 1.26
ACTACACTGG | 1.4
ACTACAGTGA | 1.04
ACTACCTAGG | 1.18
ACTAGATTGC | 0.975
ACTAGATTTT | 1.02
ACTAGCCACG | 1.05
ACTAGCCCAA | 1.05
ACTAGGATGC | 0.987
ACTAGTCTCC | 1.06
ACTAGTTGAC | 1.04
ACTAGTTGT | 1
ACTATAAAAT | 1.05
ACTATATGTC | 1.04
ACTATATGTT | 1
ACTATCGGCT | 1.01
ACTATCGTGG | 0.991
ACTATGCATC | 1.96
ACTATGTCCC | 1.04
ACTATGTGCA | 0.962
ACTATTGGT | 1.03
ACTATTTATT | 1.02
ACTCAAAGCC | 1.05

Sequence | switch fluorescence ratio
ACTCACGATA | 1.5
ACTCAGGGGA | 1.13
ACTCATAGCA | 1.19
ACTCATATGC | 1.25
ACTCCTCCGC | 1.44
ACTCCTGG | 1.07
ACTCGACGGA | 1.06
ACTCGATTT | 0.969
ACTCGTGATG | 0.989
ACTCGTTATT | 0.965
ACTCGTTTAA | 1.01
ACTCTAGTGA | 0.979
ACTCTCTTCG | 1.05
ACTCTGCG | 1.55
ACTCTGGCTG | 1.05
ACTCTGGTGG | 1.03
ACTCTGGTTC | 1.09
ACTCTTCTGT | 1.01
ACTCTTGCCT | 1.07
ACTGAAAATT | 1.02
ACTGAAAGCG | 0.983
ACTGAAGGCA | 1
ACTGACGAAA | 1.18
ACTGACGAAC | 1.83
ACTGAGCATA | 1.47

Sequence | switch fluorescence ratio
ACTGAGTATG | 0.99
ACTGATCCC | 1.03
ACTGATCGGC | 1.07
ACTGATGTTG | 1.01
ACTGCACCCG | 1.35
ACTGCCGTGA | 1
ACTGCGCCCG | 1.06
ACTGCGGGCT | 1.02
ACTGCGTAAG | 1.03
ACTGCGTACG | 1.03
ACTGCTCAG | 1.02
ACTGCTTCGA | 0.941
ACTGGAATGG | 0.969
ACTGGACCTG | 1.01
ACTGGAGAGA | 1.02
ACTGGGGGAT | 1.03
ACTGGTGCAA | 0.976
ACTGGTTAGG | 1.02
ACTGGTTTAT | 1.06
ACTGTAGGCC | 1.05
ACTGTATGTT | 1.11
ACTGTCATGG | 1.1
ACTGTCCTCT | 1.01
ACTGTCGCCG | 0.971
ACTGTCTGTA | 1.02

Sequence | switch fluorescence ratio
ACTGTGCAT | 1.27
ACTGTTCATC | 0.999
ACTGTTGTCA | 1.03
ACTTAATTT | 0.977
ACTTACGGGA | 1.31
ACTTAGAGG | 0.955
ACTTAGGGGC | 1.06
ACTTATCGAG | 1.02
ACTTCGCCCA | 1.45
ACTTCGTTCA | 1.03
ACTTCTGGCA | 1.1
ACTTCTTTCA | 0.968
ACTTGATGTC | 0.945
ACTTGGAG | 1.05
ACTTGGGTTG | 0.961
ACTTGTACAA | 1.1
ACTTGTACCA | 1.2
ACTTGTTTTG | 1.01
ACTTTAAAAA | 1.31
ACTTTAAGAC | 1.07
ACTTTACCTC | 1.5
ACTTTACTTT | 1.28
ACTTTATTAT | 1
ACTTTCAG | 1.04
ACTTTGCAGG | 1.14

— the supplement of paper PMC10126150
